Test results from PubChem BioAssay AID360 (National Center for Advancing Translational Sciences (NCATS), 2006).
Hit rate of the full screen: of about 48,000 compounds, about 550 (1.1%) were called active. Not shown: some 4% with an inconclusive outcome. No stated cut-off is given here; in the data, active means potency below about 15 µM; inconclusive means mostly about 16 µM to 33 µM; inactive means weaker than that. The list shows a part of the results.

Each compound was assayed against Lysosomal acid glucosylceramidase (Homo sapiens) (UniProt P04062) (assay: Glucocerebrosidase). Details: purified enzyme, resorufin glucoside fluorescence (screen aimed at inhibitors), 20 min.
Sequence of UniProt P04062 (P04062 whole entry, looked up): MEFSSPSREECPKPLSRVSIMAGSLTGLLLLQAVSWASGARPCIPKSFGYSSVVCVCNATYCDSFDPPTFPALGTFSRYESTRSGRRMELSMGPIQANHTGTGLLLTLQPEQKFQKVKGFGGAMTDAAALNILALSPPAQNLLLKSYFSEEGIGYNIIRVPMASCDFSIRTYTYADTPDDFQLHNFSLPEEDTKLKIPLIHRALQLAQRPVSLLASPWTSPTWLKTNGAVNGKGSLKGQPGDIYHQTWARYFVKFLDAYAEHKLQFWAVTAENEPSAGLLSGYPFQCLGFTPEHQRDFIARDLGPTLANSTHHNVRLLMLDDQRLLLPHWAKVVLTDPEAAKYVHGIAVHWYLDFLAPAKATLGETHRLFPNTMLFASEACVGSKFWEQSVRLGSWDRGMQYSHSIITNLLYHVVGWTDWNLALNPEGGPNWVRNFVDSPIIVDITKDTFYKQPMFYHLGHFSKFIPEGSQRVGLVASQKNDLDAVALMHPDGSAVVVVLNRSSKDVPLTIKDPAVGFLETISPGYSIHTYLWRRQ
Method in brief: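 Wild-type enzyme at 0.2 nM final in 50mM citric acid/KH2PO4, 10mM sodium taurocholate, 0.01% tween-20, pH 5.9, with resorufin beta-D-glucopyranoside at 30 uM final. Compounds titrated, 20 min at RT, red fluorescence read; AC50 from titration.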
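Further: the screen sought inhibitors.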
Potency means the concentration at half of the fitted maximal effect.

Structure (SMILES)	Potency
CN(c1ccccc1C(=O)N1CCOCC1)S(C)(=O)=O	inactive: > 76.9 µM
COc1ccc2[nH]c(=O)c(CN(C3CCCCC3)C(c3nnnn3Cc3ccco3)C(C)C)cc2c1 (stereo unspecified)	inactive
Fc1cccc(CN2CCCCCCC2)c1	inactive: > 76.9 µM
CCCc1cc(=O)[nH]c(SCC(=O)N(C)CC(=O)Nc2ccccc2CC)n1	inactive: > 76.9 µM
O=P(O)(O)c1ccccc1OCc1ccccc1	inactive: > 76.9 µM
Cc1ncsc1CCOC(=O)c1cccnc1	inactive: > 76.9 µM
CCOc1ccccc1N1CC(C(=O)Nc2nccs2)CC1=O (stereo unspecified)	inactive: > 76.9 µM
CCOC(=O)N1CCN(C(=O)c2cc3c(ccc4ccccc43)oc2=O)CC1	inactive: > 76.9 µM
O=C(COC(=O)c1ccco1)Nc1ccccc1	inactive: > 76.9 µM
CCC1CCCCN1CCCNC(=O)c1ccc(CS(=O)(=O)Cc2ccccc2F)o1 (stereo unspecified)	inactive: > 76.9 µM
Cc1cc(=O)[nH]c(SCC(=O)Nc2nc3c(s2)CCCC3)n1	inactive: > 76.9 µM
CC(=O)N1CCC2(CC1)C(C#N)=C(N)Oc1n[nH]c(CSc3ccc(C)cc3)c12	inactive: > 76.9 µM
C=CCc1ccc(OCC(O)CN2CCCCC2C)c(OC)c1 (stereo unspecified)	inactive: > 76.9 µM
Cc1cc(Cl)ccc1OCCCC(=O)N1CCN(C(=O)c2ccco2)CC1	inactive: > 76.9 µM
COC(=O)CSc1nnc(CNc2ccc(OC)cc2)n1C	inactive: > 76.9 µM
COc1ccc(C(=O)Nc2nnc(-c3ccccc3)o2)cc1OC	inactive: > 76.9 µM
c1ccc2c(c1)C(=Nn1cnnc1)c1ccccc1-2	inactive: > 76.9 µM
COc1ccc(C(C(=O)NC2CCCCC2)N2CCC3(CC2)OCCO3)cc1 (stereo unspecified)	inactive: > 76.9 µM
COc1ccc(C(=O)N(CCCO)C(C)C(=O)NC2CCCCC2)cc1OC (stereo unspecified)	inactive: > 76.9 µM
Cc1ccccc1-c1n[nH]c(=S)o1	inactive: > 76.9 µM
CCn1c(COc2cccc(OC)c2)nnc1SCC(=O)Nc1cc(OC)ccc1OC	inactive: > 76.9 µM
Cc1cccn2c(=O)c3cc(C(=O)NCCCn4ccnc4)n(C)c3nc12	inactive: > 76.9 µM
COc1cc2nc(-c3cccs3)oc(=O)c2cc1OC	inactive: > 76.9 µM

Structure (SMILES)	Potency
CCCc1ccc(OCc2nc(-c3ccc(NC(=O)c4ccco4)cc3)no2)cc1	inactive: > 76.9 µM
c1csc(-c2nc3nc4ccccc4nc3n2Cc2ccc3c(c2)OCO3)c1	inactive: > 76.9 µM
Cc1c(=O)n(OCc2ccccc2F)c2ccccc2[n+]1[O-]	inactive: > 76.9 µM
COc1cc2nc3c4ccccc4n(CC#N)c3nc2cc1OC	inactive: > 76.9 µM
Cn1c(=O)c2c(nc(N3CCCCCC3)n2CC(=O)c2ccc(Br)cc2)n(C)c1=O	inactive: > 76.9 µM
O=S(=O)(Nc1ccccn1)c1ccc(Oc2ccccc2)cc1	inactive: > 76.9 µM
Cc1cc(C)c2[nH]c(=O)c(CN(CC3CCCO3)C(=O)C3CCCO3)cc2c1 (stereo unspecified)	inactive: > 76.9 µM
O=C(NC1CCN(Cc2ccccc2)CC1)C1CCN(S(=O)(=O)c2cccc3nsnc23)CC1	inactive: > 76.9 µM
CCN(CC)S(=O)(=O)c1cccc(-c2nnc(SCCCC(=O)c3ccccc3)o2)c1	inactive: > 76.9 µM
C=CCn1c(SCC(=O)Nc2cc(C)cc(C)c2)nnc1-c1cnccn1	inactive: > 76.9 µM
O=C(Nc1ccc2c(c1)OCO2)[C@@H]1[C@@H]2C(=O)N(C3CCCCC3)C(=O)[C@@H]2C2c3ccccc3C=CN21 (stereo partly specified)	inactive: > 76.9 µM
COc1ccc(NCc2cc3cc(OC)ccc3[nH]c2=O)cc1	inactive: > 76.9 µM
COCCCn1c(SCC(=O)OC2CCCCC2)nnc1-c1ccco1	inactive: > 76.9 µM
O=C(C1CCC(C(=O)N2CCCC2)CC1)N1CCCC1 (stereo unspecified)	inactive: > 76.9 µM
COc1ccccc1Nc1ncnc2c1oc1ccccc12	inactive
Cc1nc2c(c(=O)n1Cc1ccco1)c1nc3ccccc3nc1n2Cc1ccccc1	inactive: > 76.9 µM
CCc1nnc2n1N=C(c1ccc(-c3ccc(Cl)cc3Cl)o1)CS2	inactive: > 76.9 µM
O=C1NC(NS(=O)(=O)c2ccccc2)(C(F)(F)F)C(=O)N1Cc1cccnc1 (stereo unspecified)	inactive: > 76.9 µM
Cn1nnc2cc(NC(=O)N3CC4(C)CC3CC(C)(C)C4)ccc21 (stereo unspecified)	inactive: > 76.9 µM
CCOC(=O)c1c(C)oc(NC(=O)COc2ccc(Cl)cc2C)c1C#N	inactive: > 76.9 µM
COc1ccc(-c2cc(C(=O)N3CCN(C(c4ccccc4)c4ccccc4)CC3)no2)cc1	inactive: > 76.9 µM
Cc1cc(C)c(NC(=O)NC(=O)c2cccc(F)c2)c(C)n1	inactive
CCOC(=O)c1ccc2c(c1)nc(SC/C(O)=C(\C#N)c1nc3ccccc3[nH]1)n2CC	inactive: > 76.9 µM

Structure (SMILES)	Potency
CC1Cc2ccccc2N1C(=O)C1CCCN(S(=O)(=O)c2cccc3nsnc23)C1 (stereo unspecified)	inactive: > 76.9 µM
CC(C)CCOc1ccc(C2(C)NC(=O)N(CN3CCOCC3)C2=O)cc1 (stereo unspecified)	inactive: > 76.9 µM
CCn1c(SCC(N)=O)nc2ccccc2c1=O	inactive: > 76.9 µM
COc1ccccc1CN1C(=O)[C@@H]2C(CC(N)=O)NC3(C(=O)Nc4c3ccc(Cl)c4C)[C@@H]2C1=O (stereo partly specified)	inactive: > 76.9 µM
CCn1c(SCC(=O)Nc2sc(C)c(C)c2C#N)nnc1C(C)C	inactive: > 76.9 µM
N#Cc1nc(COc2ccccc2)oc1NCCN1CCOCC1	inactive: > 76.9 µM
Cn1c(=O)c2c(nc(SCC(=O)N3CCc4ccccc4C3)n2C)n(C)c1=O	inactive: > 76.9 µM
Cc1cc(C)c(S(=O)(=O)Nc2cccc3nsnc23)c(C)c1	inactive: > 76.9 µM
COC(=O)C1=C(C)NC2=C(C(=O)CCC2)C1c1cccs1 (stereo unspecified)	inactive: > 76.9 µM
Cc1cc(NC(=O)c2cc(C)on2)n(-c2ccccc2)n1	inactive: > 76.9 µM
CCc1ccc(OCc2ccc(C(=O)NCc3ccccn3)o2)cc1	inactive: > 76.9 µM
O=C(c1ccccc1)c1c[nH]c2cc3c(cc2c1=O)OCCO3	inactive: > 76.9 µM
O=C(CSc1ncccc1C(=O)O)NCc1ccc(F)cc1	inactive: > 76.9 µM
CCOC(=O)CSc1nnc(CNC(=O)c2cccs2)n1CCc1ccccc1	inactive: > 76.9 µM
CC(=O)N1CCc2[nH]c3ccccc3c2C1	inactive: > 76.9 µM
Cc1noc(C)c1CSc1nnc2scc(-c3ccc(Cl)cc3)n12	inactive: > 76.9 µM
CCc1ccc(NC2=NC(C(=O)c3ccccc3)CC(=O)N2)cc1 (stereo unspecified)	inactive: > 76.9 µM
O=C(CSc1nnc(CN2CCOCC2)n1-c1ccc(Cl)cc1)Nc1cc(Cl)ccc1O	inactive
Cc1nc2cc(-c3ccccc3)ccc2o1	inactive: > 76.9 µM
CCCCN(C)CCNC(=O)c1c[nH]c2ccc(S(=O)(=O)N(CC)CC)cc2c1=O	inactive: > 76.9 µM
CN1CCN(C(=O)N2CCNC2=O)CC1	inactive: > 76.9 µM
Clc1ccc(-c2nnc(N3CCCC3)nn2)cc1	inactive: > 76.9 µM
N#CCSc1nnc2ccc3ccccc3n12	inactive: > 76.9 µM

Structure (SMILES)	Potency
CCOC(=O)c1ccc(NC(=O)COc2ccc(-n3cnnn3)cc2)cc1	inactive: > 76.9 µM
COc1ccccc1CNC(=O)Cn1cnc2ccccc2c1=O	inactive: > 76.9 µM
Cc1cc(C)nc(N2CCC(C(=O)NC3CCCc4ccccc43)CC2)n1 (stereo unspecified)	inactive: > 76.9 µM
C=C(C)Cn1c(SCC)nc2ccccc2c1=O	inactive: > 76.9 µM
Cc1cc(NC(=O)CN2CCCCCCC2)no1	inactive: > 76.9 µM
O=C(N1CCOCC1)N1CCCC(c2nc(-c3cccs3)no2)C1 (stereo unspecified)	inactive: > 76.9 µM
Cc1nc(NCc2ccco2)c(C#N)c2c1COC(C)(C)C2	inactive: > 76.9 µM
COc1ccc(-c2coc3c(CN4CCCCC4)c(O)c(CN4CCCCC4)c(O)c3c2=O)cc1	inactive: > 76.9 µM
C=CCSc1nnc(-c2ccccc2NC(C)=O)c(=O)[nH]1	inactive: > 76.9 µM
O=C(Nc1nnc(CC(=O)N2CCOCC2)s1)C1COc2ccccc2O1 (stereo unspecified)	inactive: > 76.9 µM
O=C1CCCN1CCCNc1ccc(S(=O)(=O)N2CCCCC2)cn1	inactive: > 76.9 µM
CCOC(=O)C1CCN(S(=O)(=O)c2cccc(-c3cn4cccc(C)c4n3)c2)CC1	inactive: > 76.9 µM
CCOC(=O)Cn1c2ccccc2c2nc3ccccc3nc21	inactive: > 76.9 µM
COCCNC(=O)CN1CCC(n2c(C)nc3cc(C(F)(F)F)ccc32)CC1	inactive: > 76.9 µM
Cc1cc(OCC(O)CN2CCN(C)CC2)ccc1C(C)C (stereo unspecified)	inactive: > 76.9 µM
Cc1cccc(Nc2nc(-c3ccccn3)cs2)n1	inactive
CCOC(=O)Nc1ccc2c(c1)nc(CN1CCOCC1)n2C	inactive: > 76.9 µM
CC(C)CN(C(=O)COC(=O)c1ccc2c(c1)NC(=O)CS2)C1CCS(=O)(=O)C1 (stereo unspecified)	inactive: > 76.9 µM
COc1ccc(-n2c(C)nc3c(cnn3-c3ccccc3)c2=O)cc1	inactive: > 76.9 µM
O=C(NCCCN1CCN(c2cccc(Cl)c2)CC1)c1nc(-c2ccncc2)no1	inactive: > 76.9 µM
COC(=O)c1ccc(CSc2nc3c(cnn3-c3ccc(C)c(C)c3)c(=O)[nH]2)o1	active: 13.9 µM
COc1ccccc1-c1cc(C(=O)Nc2cc(C)n(Cc3ccc(Cl)cc3)n2)no1	inactive: > 76.9 µM
